The values below come from article PMC4589964.

Protein sequences, listed by entry. Tags and fused reporters are not part of them.
UniProt Q8IZP0: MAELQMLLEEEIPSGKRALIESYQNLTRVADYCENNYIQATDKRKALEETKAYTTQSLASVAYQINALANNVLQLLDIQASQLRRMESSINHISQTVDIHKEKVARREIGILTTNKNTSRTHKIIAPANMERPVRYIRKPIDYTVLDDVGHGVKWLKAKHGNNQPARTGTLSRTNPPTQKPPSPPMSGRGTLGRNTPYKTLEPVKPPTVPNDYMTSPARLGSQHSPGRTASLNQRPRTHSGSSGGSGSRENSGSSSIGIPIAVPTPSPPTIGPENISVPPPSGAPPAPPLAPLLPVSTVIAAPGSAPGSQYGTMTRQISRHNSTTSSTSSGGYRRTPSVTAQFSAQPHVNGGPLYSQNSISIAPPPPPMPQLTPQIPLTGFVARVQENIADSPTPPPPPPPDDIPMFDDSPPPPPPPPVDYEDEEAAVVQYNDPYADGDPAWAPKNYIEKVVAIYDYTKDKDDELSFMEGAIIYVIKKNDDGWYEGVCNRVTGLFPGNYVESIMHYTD
UniProt Q8CBW3: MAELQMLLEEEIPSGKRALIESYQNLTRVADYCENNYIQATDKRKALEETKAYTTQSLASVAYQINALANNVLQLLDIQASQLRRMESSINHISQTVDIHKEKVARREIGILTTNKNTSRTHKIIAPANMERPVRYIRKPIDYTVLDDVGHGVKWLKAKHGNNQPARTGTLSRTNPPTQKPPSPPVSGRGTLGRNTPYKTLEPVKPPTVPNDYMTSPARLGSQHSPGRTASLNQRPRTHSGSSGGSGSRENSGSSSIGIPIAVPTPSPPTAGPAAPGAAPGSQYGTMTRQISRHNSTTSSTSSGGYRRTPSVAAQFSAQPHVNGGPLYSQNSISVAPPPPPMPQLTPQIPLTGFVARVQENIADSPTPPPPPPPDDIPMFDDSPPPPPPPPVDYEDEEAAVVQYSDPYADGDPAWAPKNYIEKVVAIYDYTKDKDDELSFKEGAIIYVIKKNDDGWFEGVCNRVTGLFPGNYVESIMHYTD
UniProt P00520: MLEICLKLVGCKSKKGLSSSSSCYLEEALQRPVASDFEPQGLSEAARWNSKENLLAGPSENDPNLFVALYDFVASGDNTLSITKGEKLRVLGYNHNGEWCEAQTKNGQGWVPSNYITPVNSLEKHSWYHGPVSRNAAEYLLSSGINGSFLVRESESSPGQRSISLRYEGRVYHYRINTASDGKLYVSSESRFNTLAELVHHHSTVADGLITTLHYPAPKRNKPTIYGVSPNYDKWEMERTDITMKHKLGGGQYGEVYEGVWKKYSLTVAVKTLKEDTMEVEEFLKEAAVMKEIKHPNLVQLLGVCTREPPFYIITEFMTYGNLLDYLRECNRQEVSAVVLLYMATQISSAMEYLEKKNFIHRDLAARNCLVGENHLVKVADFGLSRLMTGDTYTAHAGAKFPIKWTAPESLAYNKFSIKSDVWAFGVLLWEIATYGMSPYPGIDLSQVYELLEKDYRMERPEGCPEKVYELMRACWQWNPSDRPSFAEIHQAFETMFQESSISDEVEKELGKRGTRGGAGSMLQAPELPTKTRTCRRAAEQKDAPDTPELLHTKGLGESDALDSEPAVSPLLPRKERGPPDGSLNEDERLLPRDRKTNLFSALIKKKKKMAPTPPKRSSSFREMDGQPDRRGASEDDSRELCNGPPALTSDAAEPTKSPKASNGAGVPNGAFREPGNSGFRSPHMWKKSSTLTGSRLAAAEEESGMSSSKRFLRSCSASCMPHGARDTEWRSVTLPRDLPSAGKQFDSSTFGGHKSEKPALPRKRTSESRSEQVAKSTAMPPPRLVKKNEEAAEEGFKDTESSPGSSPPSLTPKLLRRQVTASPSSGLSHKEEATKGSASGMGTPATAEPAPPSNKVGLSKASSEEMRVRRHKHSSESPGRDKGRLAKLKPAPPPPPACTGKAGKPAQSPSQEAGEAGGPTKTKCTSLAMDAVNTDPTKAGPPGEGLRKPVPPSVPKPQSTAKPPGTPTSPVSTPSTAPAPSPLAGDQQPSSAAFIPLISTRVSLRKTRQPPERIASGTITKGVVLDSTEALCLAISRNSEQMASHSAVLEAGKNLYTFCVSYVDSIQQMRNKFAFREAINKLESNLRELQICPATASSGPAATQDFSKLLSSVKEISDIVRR

These are yes or no findings as the source states them, for the method shown. In cells and extracts the contact can be indirect. Some entries that bind do so weakly or less than the wild type. For some of these results: Sequences can lack the tags named with a protein.

For test [1], the target named is Abi-1 (endogenous, HUVEC) (human (endogenous in HUVEC)) (UniProt Q8IZP0). The test is described as follows: co-IP; HUVEC lysates; precipitated with anti-Abi-1 (1G9) or a rabbit anti-human NESH antibody; overnight at 4 °C, protein G beads; Western blot.
The target of test [2] is Abi-1 (endogenous, mouse) (mouse (endogenous in NIH3T3 and mouse brain)) (UniProt Q8CBW3). The test is described as follows: co-IP; mouse brain lysates; precipitated with anti-Abi-1 (1G9) or anti-NESH (2H7); overnight at 4 °C, protein G beads; Western blot. For orientation: A western blot detects proteins with antibodies after separation by electrophoresis.
In test [3] the target is T1, NESH/Abi-3 (endogenous, mouse brain) (mouse (endogenous in mouse brain)) (UniProt Q8BYZ1).
T1 sequence: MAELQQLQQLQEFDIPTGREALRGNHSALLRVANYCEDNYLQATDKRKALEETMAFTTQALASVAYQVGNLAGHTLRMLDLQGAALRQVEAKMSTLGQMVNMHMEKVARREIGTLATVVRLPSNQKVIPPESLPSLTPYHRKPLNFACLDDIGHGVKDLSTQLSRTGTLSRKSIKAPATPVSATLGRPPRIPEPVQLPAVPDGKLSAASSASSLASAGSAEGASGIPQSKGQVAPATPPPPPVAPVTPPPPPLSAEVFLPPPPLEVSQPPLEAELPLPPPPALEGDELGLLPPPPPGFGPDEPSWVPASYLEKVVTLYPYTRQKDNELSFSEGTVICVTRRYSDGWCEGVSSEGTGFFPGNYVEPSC
The test is described as above.

Test [4] deals with Abi-1 (endogenous, mouse) (mouse (endogenous in NIH3T3 and mouse brain)) (UniProt Q8CBW3). The test is described as follows: co-IP; lysates of control and FLAG-NESH-expressing NIH3T3 cells; precipitated with anti-Abi-1 (1G9), anti-NESH (2H7) or anti-FLAG (M2); overnight at 4 °C, protein G beads; Western blot.
Test [5] deals with FLAG-tagged NESH/Abi-3 stably expressed in NIH3T3 cells (human) (UniProt Q9P2A4). The test is described as above.

For “WAVE2 (endogenous, HUVEC) (from UniProt Q9Y6W5 1-498)”, the binding entry in test [1] is reported as “binds”.

Turning to “WAVE2 (endogenous, mouse) (from UniProt Q8BH43 1-497)”, the binding entry in test [2], in test [3], in test [4] and in test [5] was “binds” throughout.

As to “c-Abl (endogenous, mouse brain) (from UniProt P00520 1-1123)”, the binding result in test [2] and in test [3] was “no binding” throughout.
